The list shows a part of the results. The data describe in vitro nicking of single-stranded DNA by Rep domains (1 h at 37 °C, 3 µM enzyme); the outer parts of the 90-letter strands are left off. Numbers give uncut DNA relative to the enzyme-free pool, as log2; strong cutting gives strongly negative numbers. There is no active / inactive call. Reads are scaled to the total, so uncut sequences can rise above 0 when many others are cut.

This test has as its system T1, Rep nickase domain of tomato golden mosaic virus.
T1 sequence (residues 1-124 of Rep, tag left off): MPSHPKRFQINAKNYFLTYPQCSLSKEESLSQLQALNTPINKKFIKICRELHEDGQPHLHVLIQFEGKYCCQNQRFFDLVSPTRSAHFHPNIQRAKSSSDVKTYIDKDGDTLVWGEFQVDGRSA
Briefly: uncleaved DNA left, log2 of reads against the no-enzyme library (log2 ratio); higher = less cleavage (more negative = more Rep cleavage of the k-mer); sequences stand for … in CTCGTCCG…ACCGGAGA
As to the method: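 A pool of 90-nt single-stranded DNAs with seven random bases just before the constant AC of the nick site (name = the seven bases) was cut by 3 µM recombinant His6-SUMO-tagged Rep nickase domain (300 nM DNA, 50 mM HEPES pH 8.0, 50 mM NaCl, 1 mM MnCl2, 1 h, 37 °C, three replicates). Uncut DNA was amplified and sequenced.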
Turning to TACCCGA, the “uncleaved DNA left (log2)” value is -0.127.

With CAGTTGG, the “uncleaved DNA left (log2)” value was -0.113.

For the sequence CTACCTA, the “uncleaved DNA left (log2)” value was -0.0827.

Turning to AGTAGGA, the “uncleaved DNA left (log2)” value was 0.0217.

With ACTTGAA, the “uncleaved DNA left (log2)” value was -0.0849.

For the sequence ACCTCGT, the “uncleaved DNA left (log2)” value was -0.0183.

On to ATCTCAA, for which the “uncleaved DNA left (log2)” value was -0.0874.

As for CAATTCT, the “uncleaved DNA left (log2)” value was -4.12.

Turning to AGATAAG, the “uncleaved DNA left (log2)” value is -0.0375.

Take GCTGCTG: the “uncleaved DNA left (log2)” value was determined as 0.0244.

On to GGTAAGT, for which the “uncleaved DNA left (log2)” value turned out to be 0.0598.

For the sequence CTCGAGA, the “uncleaved DNA left (log2)” value is -0.104.

Turning to TTATGGC, the “uncleaved DNA left (log2)” value was -0.107.

For AAAGATG, the “uncleaved DNA left (log2)” value was 0.188.

Regarding GTATCTA, the “uncleaved DNA left (log2)” value was 0.0697.

Take CTTTAAA: the “uncleaved DNA left (log2)” value was -0.0305.

As for GCCCGGG, the “uncleaved DNA left (log2)” value is -0.00162.

With AGTTGAC, the “uncleaved DNA left (log2)” value was 0.275.

In the case of ATTACTA, the “uncleaved DNA left (log2)” value amounted to 0.0826.

On to ATGGACC, for which the “uncleaved DNA left (log2)” value was -0.105.

Turning to CATATGT, the “uncleaved DNA left (log2)” value was determined as 0.0888.

With TTCTTGG, the “uncleaved DNA left (log2)” value was -0.0222.

Take GTCACTC: the “uncleaved DNA left (log2)” value was -0.0287.

ACTGTAT: the “uncleaved DNA left (log2)” value was found to be 0.119.

Regarding CCCGTAC, the “uncleaved DNA left (log2)” value turned out to be 0.0503.

For GTACGTG, the “uncleaved DNA left (log2)” value is 0.0411.

As to ATACTCT, the “uncleaved DNA left (log2)” value is -0.131.

For the sequence TTAGATT, the “uncleaved DNA left (log2)” value was -0.209.

On to AAGCGGG, for which the “uncleaved DNA left (log2)” value came to 0.125.

With CGCACCG, the “uncleaved DNA left (log2)” value is -0.087.

With CGGAAGG, the “uncleaved DNA left (log2)” value came out at 0.044.

Consider AAAACCT, for which the “uncleaved DNA left (log2)” value is -0.223.

For TAGAATT, the “uncleaved DNA left (log2)” value was -0.309.

Regarding CAGCCGC, the “uncleaved DNA left (log2)” value is -0.209.

For the sequence GAGCGGA, the “uncleaved DNA left (log2)” value worked out at 0.0553.

CAATCCG: the “uncleaved DNA left (log2)” value was -0.0576.

Consider GAGAAGC, for which the “uncleaved DNA left (log2)” value is 0.00326.

Take CCTTATG: the “uncleaved DNA left (log2)” value is -0.0624.

For GAGCGCA, the “uncleaved DNA left (log2)” value came to 0.161.

On to CGAGGAT, for which the “uncleaved DNA left (log2)” value stood at 0.174.

(Values after the supplement of paper PMC7826260.)
